Test results from the supplement of paper PMC11417369.
± gives the standard deviation of the averaged measurements. This is one part of the list.

Tested on: PfAP2-EXP AP2 domain (GST-tagged)
Experiment: gcPBM binding intensity (ln(normalized median fluorescence intensity)); higher = stronger DNA binding
How it was run: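 Each value is the highest Masliner-normalised natural-log median intensity across replicate spots of either orientation of a probe. The probes were primer-extended double-stranded 36-bp intergenic genomic sequences on an Agilent 4 × 180k array, alongside negative controls, exposed for 1 h to GST-tagged P. falciparum DNA-binding domains expressed in E. coli. Bound protein was picked up with Alexa488 anti-GST antibody and scanned at 488 nm.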

Sequence	gcPBM binding intensity (ln)
CAAGCCCTTCTGCTTACACACAGTAATTATTGTGCA [CACACA_site7399]	8.62 ± 0.3
TAAATATATTTATAAGCACACACTAATAAACCAACA [CACACA_site8022]	8.91 ± 0.29
TTATGCAATTTGTATTGTACATTCATGATATTAATA [XGTACX_site5070]	8.62 ± 0.44
ATTATACATATATAAGTGCAATAATGTTTTTTCCTT	8.56 ± 0.19
TATACATATGAAAATACACACATACATACATATATA [CACACA_site8484]	8.53 ± 0.42
AAGGTATATATAACTACACACTTATATATAATCTAA [CACACA_site92]	8.16 ± 0.39
AGGAACAAAATATACTGTACTTTATTATTTTCAAAA [XGTACX_site4421]	8.35 ± 0.37
ATACATATTTTACATTCACACAACAAATTTATATTT [CACACA_site4700]	8.65 ± 0.42
ATTTTCCAAAATAATTGTACAGGAAAGAAATAATTA [XGTACX_site7424]	8.64 ± 0.33
TAATAAAATATGTACACACATACACCCATATATATA [CACACA_site1220]	8.63 ± 0.39
TGTAGTCTGGAGAAAAGTACATAGTATCTGGTAACC [XGTACX_site2025]	8.62 ± 0.38
AACAGACAGAAACACACACACATATATATATATATA [CACACA_site3394]	10 ± 0.41
ATATATTTTAATTGATGTACTTTTTTATGTTAATGA [XGTACX_site4316]	8.42 ± 0.28
TATATTTTGTTCTGTTGTACTAAAAAAATCTTTATA [XGTACX_site8372]	8.56 ± 0.45
TTACTTTTAACAAATGTGCGCAGTTATCACACAGAC	8.81 ± 0.16
ACAAAACAAAAAAACTCACACATATACGGCATGTCA [CACACA_site5608]	8.66 ± 0.35
ATATATATATATATATGTACTAAGAATTCTTTAAAA [XGTACX_site8476]	10.3 ± 0.16
ATTTATTTATTTATATGTACATATTTAAAGAGTTCA [XGTACX_site7631]	8.52 ± 0.41
AACAGTAACATTGAATGTACTTAATTTTAAGAAAAT [XGTACX_site2971]	8.41 ± 0.26

Sequence	gcPBM binding intensity (ln)
TATAAATATAAATATACACACATATATTTATTTATA [CACACA_site6890]	8.13 ± 0.38
ACACATAATATGTGTAGTACTTTTTCTTTAACATTA [XGTACX_site1436]	8.64 ± 0.36
ATTTATTGACTATTTACACACATATTTATTATAATA [CACACA_site1624]	8.9 ± 0.52
TTAAAATAAAGAAAATGTACATAAATTAAAATAAAG [XGTACX_site2281]	8.85 ± 0.27
TTTTTTTTTTTTTTTATAGTACATTACCAAAAAAAA [CACACA_negctrl_site1197]	8.27 ± 0.39
TGGGTAAACAGACACACACACATATAGATTTATATA [CACACA_site7026]	8.65 ± 0.52
ACACACATATATACATGTACATATATATATATATAT [XGTACX_site451]	10.1 ± 0.3
AAATTATATGAACATTGTACTTTATATATGTAAGAA [XGTACX_site1611]	8.49 ± 0.38
CTTCCAATAAAAAATGCACACATTGAAAATATTGAA [CACACA_site2688]	8.54 ± 0.33
TATTTTGTTCTTTCCACACACAAATACAGATATTGT [CACACA_site6097]	8.86 ± 0.41
ATTTGTATATATTAATGTACACACATGCGTATGTTC [XGTACX_site7579]	8.73 ± 0.41
TCTTATCCATATATTACACACTATAAATAGAAATTA [CACACA_site6274]	8.39 ± 0.33
TATTCAACATAATATGCACACAAAAATTATGGAACG [CACACA_site8660]	8.47 ± 0.49
AATATATAATTTTATAGTACATAATAAAAGAACAGG [XGTACX_site724]	8.96 ± 0.35
TTATATTATGCTTGAATGCACTTTGAAGCACAATCT [GTGCAC_site9789]	8.44 ± 0.071
TTTAATTTTTTTTAAACACACACATTACATTCAAAA [CACACA_site7926]	8.31 ± 0.28
ATCACATAAAATATGAATATATATTTTATATATATA [CACACA_negctrl_site340]	8.56 ± 0.16
TATATTTACGTATGTCGAACGTTATTTTGAACAACC [CACACA_negctrl_site1261]	8.62 ± 0.43
TTAAAAAAAAAAAGGTGTACTATAATTTAATATCAC [XGTACX_site6316]	8.45 ± 0.27

Sequence	gcPBM binding intensity (ln)
TTTATACACAAAAAATGTACATATATATAATGAATT [XGTACX_site1195]	8.8 ± 0.42
CGTTTATATAGTGATGCATGCATTGTTAACATGGTT [TGCATGCA_site418]	9.77 ± 0.28
CGCACAAAAATATACACACACACATATATATTTATT [CACACA_site3645]	8.69 ± 0.59
TGTATGTCTTTATTTTGTACACAATATAAAAAATTA [XGTACX_site5441]	8.79 ± 0.32
ACACAAAAAATAAAAATATATATATATTATATATAT [CACACA_negctrl_site1489]	8.615 ± 0.007
TAATAATAAATTGGTTGTACAACCTTATACAGAATA [XGTACX_site2592]	8.63 ± 0.33
TAAAAAAATATATATACATGCATAGAAAAAAAAAAA [TGCATGCA_site552]	8.88 ± 0.29
TTTTTTTATTAAAAATGTACAAAAATGAAAAAATAA [XGTACX_site8279]	8.69 ± 0.4
CATATAATTTTATGGGTGCATTTTTTTGTAAGACCA	8.96 ± 0.57
ATTTAATTTTTTTTTTTTTTTTTTCAATCCCCTTTT [CACACA_negctrl_site1013]	8.21 ± 0.53
TTTTAAACAAAAATTTGTACACAATAATTAAATATA [XGTACX_site6755]	8.52 ± 0.5
CATTTTAAAGAAAATACACACAAAAATAAATATATA [CACACA_site1395]	8.54 ± 0.47
TTTATATTATTTTAAACATGCACAAGTATAATTTAT [TGCATGCA_site233]	8.43 ± 0.28
TAAATTTAGAAACACACACACATATATATATATATA [CACACA_site847]	10.3 ± 0.4
TGTGGGAATAACCACACACACACACGCATATAAATA [CACACA_site7634]	8.66 ± 0.54
CTCATAAAAATAACGTTAACATAAATTTATTGTGAT [XGTACX_negctrl_site169]	8.81 ± 0.57
TGAACAGACGAGCACACACACACATATATATATATA [CACACA_site1019]	10.2 ± 0.26
TTTTCATATGAACAATGTACACATCGTATAATTCTG [XGTACX_site4756]	8.69 ± 0.44
ATACATATTAAAGGATGTACACTTATATTTTTTAGA [XGTACX_site5406]	8.25 ± 0.2
